The list shows a part of the results. One pool of 16,384 single-stranded DNAs met each Rep nickase domain in vitro (3 µM enzyme, 1 h, 37 °C); shown is the middle of each 90-letter strand. The score is log2 (uncut reads / reads without enzyme); the lower, the more was cut; hits are not called. Because reads are shares of a total, they shift together; where an enzyme cuts many sequences, the uncut ones exceed 0.

The assay relates to T1, Rep nickase domain of tomato golden mosaic virus.
T1 sequence (residues 1-124, tag not shown): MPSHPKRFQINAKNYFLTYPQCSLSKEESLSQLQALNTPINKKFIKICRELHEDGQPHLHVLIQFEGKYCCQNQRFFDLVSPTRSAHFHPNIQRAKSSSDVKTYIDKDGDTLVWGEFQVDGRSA
Briefly: uncleaved DNA left, log2 of reads against the no-enzyme library (log2 ratio); higher = less cleavage (more negative = more Rep cleavage of the k-mer); sequences stand for … in CTCGTCCG…ACCGGAGA
Here is the method: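 A pool of 90-nt single-stranded DNAs with seven random bases just before the constant AC of the nick site (name = the seven bases) was cut by 3 µM recombinant His6-SUMO-tagged Rep nickase domain (300 nM DNA, 50 mM HEPES pH 8.0, 50 mM NaCl, 1 mM MnCl2, 1 h, 37 °C, three replicates). Uncut DNA was amplified and sequenced.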
For the sequence GTATTGT, the “uncleaved DNA left (log2)” value is 0.0634.

On to GTCCATA, for which the “uncleaved DNA left (log2)” value came out at 0.0731.

ATGCGGG: the “uncleaved DNA left (log2)” value is -0.0102.

For GAACGGG, the “uncleaved DNA left (log2)” value was -0.0155.

Regarding CTTCAGC, the “uncleaved DNA left (log2)” value stood at 0.0595.

For the sequence TTGAAGT, the “uncleaved DNA left (log2)” value turned out to be 0.00235.

Turning to CCGCAGC, the “uncleaved DNA left (log2)” value was -0.000753.

Take CCATACT: the “uncleaved DNA left (log2)” value was -0.578.

Take ATCAAAA: the “uncleaved DNA left (log2)” value was -0.0622.

Consider CGCCTGG, for which the “uncleaved DNA left (log2)” value is -0.0457.

Turning to AATGCCC, the “uncleaved DNA left (log2)” value was -0.0281.

For TTGCGCG, the “uncleaved DNA left (log2)” value is -0.0708.

For the sequence AACGCGG, the “uncleaved DNA left (log2)” value is -0.00576.

In the case of AACTTAC, the “uncleaved DNA left (log2)” value is -0.0529.

CAGTTAT: the “uncleaved DNA left (log2)” value was found to be 0.0039.

As to GTTCCTC, the “uncleaved DNA left (log2)” value worked out at 0.0667.

For the sequence CGAGGAA, the “uncleaved DNA left (log2)” value was -0.0819.

With ACGTCTG, the “uncleaved DNA left (log2)” value worked out at 0.0614.

For ACACGAT, the “uncleaved DNA left (log2)” value came to 0.0631.

Regarding ATACCGC, the “uncleaved DNA left (log2)” value was -0.0181.

Take AGGTGCG: the “uncleaved DNA left (log2)” value was found to be 0.0194.

In the case of ATTCTCG, the “uncleaved DNA left (log2)” value is -0.0349.

As to CTAAGTA, the “uncleaved DNA left (log2)” value was determined as 0.0471.

Turning to CAACAGT, the “uncleaved DNA left (log2)” value was -0.0595.

For GGCACGC, the “uncleaved DNA left (log2)” value came out at 0.0451.

Regarding CGCGTTG, the “uncleaved DNA left (log2)” value came out at 0.264.

Consider AATGTTC, for which the “uncleaved DNA left (log2)” value was -0.0721.

Turning to GAACAGT, the “uncleaved DNA left (log2)” value came out at 0.0597.

With GTTAGCG, the “uncleaved DNA left (log2)” value stood at 0.0607.

Turning to TCATACT, the “uncleaved DNA left (log2)” value is -0.855.

For GCTATGT, the “uncleaved DNA left (log2)” value is -0.0587.

For the sequence GTAAGCC, the “uncleaved DNA left (log2)” value was -0.058.

On to TTTGTTT, for which the “uncleaved DNA left (log2)” value is -0.0187.

Consider CACACTC, for which the “uncleaved DNA left (log2)” value is -0.0661.

TATTAGC: the “uncleaved DNA left (log2)” value came to 0.0635.

Regarding TTATTGG, the “uncleaved DNA left (log2)” value was -0.0712.

Consider TTCGTCC, for which the “uncleaved DNA left (log2)” value was -0.165.

Turning to AACGGCA, the “uncleaved DNA left (log2)” value was -0.0283.

In the case of AGCAATA, the “uncleaved DNA left (log2)” value is -0.0225.

On to GGGACTG, for which the “uncleaved DNA left (log2)” value was 0.135.

Source of the values: the supplement of paper PMC7826260.
